Results on one molecule are retold here after PMC2588512 (Nucleic Acids Research, 2008).

This assay concerns the target Recombinant human CAF1 (CCR4-associated factor 1), GST tag removed (human, UniProt Q9UIV1). The assay can be described thus: pull-down.

B1: GST-BTG2 E115A (natural protein)
chain: not shown
With B1, the binding result is recorded as “binds”.
